# Measured values reported in PMC4336329 (PLoS ONE, 2015).
# Hit rate of the full screen: of about 310,000 compounds, about 14,000 (4.5%) showed an effect of 50% or more. Effects have a minus sign here. Some of the results follow.
# Molecular target: human ether-à-go-go-related gene (hERG) potassium channel (human, UniProt Q12809)
# Assay: primary screen, population patch clamp on CHO cells stably expressing hERG
# 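Also: peak tail current of the secondary pulse compared with the same well before compound.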
# Sequence of human ether-à-go-go-related gene (hERG) potassium channel (Q12809 whole entry, looked up): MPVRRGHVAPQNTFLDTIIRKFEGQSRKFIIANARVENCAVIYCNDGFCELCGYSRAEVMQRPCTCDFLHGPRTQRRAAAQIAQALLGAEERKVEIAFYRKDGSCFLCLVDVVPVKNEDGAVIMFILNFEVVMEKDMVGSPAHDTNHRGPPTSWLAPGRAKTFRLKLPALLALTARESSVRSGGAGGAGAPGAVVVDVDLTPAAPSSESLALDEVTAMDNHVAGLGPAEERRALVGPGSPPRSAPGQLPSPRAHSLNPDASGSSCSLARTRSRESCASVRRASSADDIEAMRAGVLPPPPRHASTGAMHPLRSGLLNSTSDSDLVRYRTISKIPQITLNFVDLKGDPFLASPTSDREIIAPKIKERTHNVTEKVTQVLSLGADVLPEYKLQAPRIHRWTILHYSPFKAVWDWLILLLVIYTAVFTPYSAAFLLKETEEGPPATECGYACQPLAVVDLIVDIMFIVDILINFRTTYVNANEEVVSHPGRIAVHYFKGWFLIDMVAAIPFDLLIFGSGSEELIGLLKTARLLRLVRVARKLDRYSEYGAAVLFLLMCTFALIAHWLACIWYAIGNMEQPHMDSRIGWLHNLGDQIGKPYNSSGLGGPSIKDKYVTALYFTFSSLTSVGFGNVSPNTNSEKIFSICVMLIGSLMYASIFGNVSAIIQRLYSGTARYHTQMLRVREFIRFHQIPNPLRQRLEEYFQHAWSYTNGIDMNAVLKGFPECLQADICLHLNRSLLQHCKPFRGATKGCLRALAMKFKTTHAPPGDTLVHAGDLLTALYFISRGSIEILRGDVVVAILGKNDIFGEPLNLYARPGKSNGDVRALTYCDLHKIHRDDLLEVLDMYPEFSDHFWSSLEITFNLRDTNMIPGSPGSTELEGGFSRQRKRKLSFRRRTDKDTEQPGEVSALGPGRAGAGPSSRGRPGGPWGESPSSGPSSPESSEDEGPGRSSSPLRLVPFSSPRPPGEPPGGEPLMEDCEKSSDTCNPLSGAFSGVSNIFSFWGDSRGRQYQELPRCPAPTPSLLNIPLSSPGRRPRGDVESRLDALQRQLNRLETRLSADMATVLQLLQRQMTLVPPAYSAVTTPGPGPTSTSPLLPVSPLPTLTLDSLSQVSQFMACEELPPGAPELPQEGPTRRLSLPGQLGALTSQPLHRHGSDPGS
row,Structure (SMILES),"hERG current change (%, negative = inhibition) at 10uM"
1,CC1(C(=O)N/N=C/c2ccccc2)CC1(Br)Br (centres unmarked),1.94%
2,Cc1ccc(/C(N)=N/OC(=O)c2ccco2)cc1,21.1%
3,Cc1nn(Cc2ccc(Cl)cc2)c(C)c1N,11.1%
4,CCc1ccc(NCCC(=O)c2ccc(Br)cc2)cc1,49.5%
5,CC(C)OCCCNC(=O)NC(=O)c1ccc(Cl)cc1,-6.21%
6,Cc1ccc(-c2nc(S(=O)(=O)c3ccc(C)cc3)c(N(C)C)o2)cc1,4.08%
7,O=C(CCC(=O)N(CC(=O)NC1CCCCC1)c1ccc(F)cc1)Nc1ccccn1,-0.471%
8,COCCOC(=O)c1c(NC(=O)CN2c3ccccc3CC2C)sc(C(N)=O)c1C (centres unmarked),9.89%
9,CC(=O)c1ccc(NC(=S)N2CCN(CCO)CC2)cc1,13.1%
10,CCc1nnc(NC(=O)CN2C(=O)/C(=C/c3cc(OC)c(OC)c(OC)c3)SC2=S)s1,-0.87%
11,CCOC(=O)C1CCN(C(=O)CCc2nnc3ccc(N4CCN(C)CC4)nn23)CC1,16.7%
12,C#CCOCCOCCOCCNc1nc(N2CCN(C(=O)Cn3cc(CCCC[NH3+])nn3)CC2)nc(N2CCN(C(=O)Cn3cc(CCCC[NH3+])nn3)CC2)n1.[Cl-],9.34%
13,CC(OC(=O)Cn1cnc2c1c(=O)n(C)c(=O)n2C)C(=O)NCc1ccccc1 (centres unmarked),3.36%
14,COC(=O)c1ccccc1NC(=O)CSCC(=O)Nc1ccccc1OC,-6.11%
15,Cc1cc(NC(=O)CCN2C(=O)/C(=C/c3ccccc3Cl)SC2=S)no1,9.1%
16,N/C(=N\OC(=O)CCCN1C(=O)c2ccccc2C1=O)c1ccc(Br)cc1,-6.47%
17,CCc1ccc(CCC(=O)Nc2nc(CC(C)=O)ns2)o1,19%
18,COc1ccc2c(c1)cc1n2CCN2CCCN=C12.Cl,-51.6%
19,Cc1cccc2cc(C#N)c(SCC(=O)NCc3cccs3)nc12,8.08%

row,Structure (SMILES),"hERG current change (%, negative = inhibition) at 10uM"
1,O=C(Nc1ccccc1[N+](=O)[O-])c1cccnc1Cl,17.2%
2,CCN(C(=O)COC(=O)c1ccc(C=O)cc1)c1c(N)n(Cc2ccccc2)c(=O)[nH]c1=O,11%
3,Cc1cc(C(=O)Nc2ccc(Br)cn2)sc1C,7.37%
4,Cc1ccc(/C=N/Nc2ccc(C(=O)O)cc2)o1,-6.29%
5,Cc1sc2ncn(CC(=O)NCC(=O)N(C)Cc3ccccc3)c(=O)c2c1C,0.854%
6,CC(C)Cn1c(C23CC4CC(CC(C4)C2)C3)n[nH]c1=S,4.7%
7,CN(C)CCn1c2c(c(SCC(=O)Nc3ccccc3C(F)(F)F)nc1=O)CCCC2,-18.4%
8,CC1=CC(=O)O[C@@H]1[C@@]1(C)C[C@H]2OC(=O)C[C@H]3[C@@H](C)C(=O)C(O)=C1[C@@]23CO,9.67%
9,CC(CN1CCOCC1)OC(=O)c1ccc(Cl)cc1Cl.Cl (centres unmarked),-1.83%
10,Cc1ccc(-c2nc(NC(=O)CSc3cc(C)c4ccccc4n3)ns2)cc1,12.5%
11,CC(=O)Cn1cnc2c(cnn2-c2ccccc2)c1=O,13.4%
12,O=C(c1ccc(OC2CCN(CCc3ccccc3)CC2)cc1)N1CCCCC1CCCO (centres unmarked),-11.4%
13,CN1c2ccccc2C(C)(C)[C@]12C=Cc1cc(O)ccc1O2,4.75%
14,COc1ccc(C2=NN(CC(=O)Nc3ccccc3C)C(=O)CC2)cc1,-33.1%
15,Cc1ccccc1NC(=O)CN1CCC(C(=O)c2ccc3c(c2)OCCO3)CC1,-44.5%
16,Cc1cc(NC(=O)COC(=O)c2cccc(OCc3ccccc3)c2)no1,32.1%
17,CC(O)c1cccc(NC(=O)CCC(=O)O)c1 (centres unmarked),-5.85%
18,Cc1cc(C)c(C(=O)CN2C(=O)C(=O)N(C3CCCC3)C2=O)cc1C,21%
19,O=C(NC1CC1)C1=C[C@@H](C2CC2)C[C@@H](OCCCCO)O1,-4.14%

row,Structure (SMILES),"hERG current change (%, negative = inhibition) at 10uM"
1,COc1ccc(C(=O)NCc2cccnc2)cc1,-1.7%
2,c1ccc(C2CC(c3cccs3)=NN2c2ccccc2)cc1 (centres unmarked),11.9%
3,Cc1cc(NC(=O)CSc2nnc(-c3ccc(S(=O)(=O)N4CCCC4)cc3)n2C)no1,3.78%
4,Cn1cccc1/C=C1\SC(=O)N(CC(=O)Nc2ccc(F)cc2)C1=O,15.1%
5,CCOc1ccc(S(=O)(=O)N2CCN(S(=O)(=O)c3ccc(C(C)=O)cc3)CC2)cc1,0.493%
6,Cc1ccc(NC(=O)C2CC(=O)Nc3nncn32)cc1 (centres unmarked),14.4%
7,CC(=O)N1CCOc2ccc(S(=O)(=O)N3CCC(C(=O)Nc4cc(C)ccc4C)CC3)cc21,-9.95%
8,CCOC(=O)c1c(C)c(C(=O)NCCCN2CCCC2=O)c(C)n1CC,2.13%
9,O=C(NC1CCCCC1)C1CCCN(S(=O)(=O)c2ccc(F)cc2)C1 (centres unmarked),-10.7%
10,CCC1=[N+](CC(=O)c2ccc(C)cc2)CCn2cccc21.[Br-],17.8%
11,Cc1c(Cl)cccc1NC(=S)NCCC(C)C,7.57%
12,COc1ccc(/C=C\C(=O)NCc2ccc3[nH]c(C)cc3c2)cc1OC,-12%
13,COc1cccc(CNCCc2ccc3c(c2)OCO3)c1OC.O=C(O)C(=O)O,-15.5%
14,CC[C@H]1CN(C)CCc2c([nH]c3ccccc23)C(=O)C[C@@H]1/C(=C\OC)C(=O)OC,-69.5%
15,COc1ccc(OC)c(-n2cc3c(=O)n(C)c(=O)n(C)c3c2)c1,-8.58%
16,OCC[C@@H]1C[C@H](O)[C@@H](O)[C@]2(Cc3ccccc3O2)O1,4.37%
17,O=[N+]([O-])c1cc(/C=N\Nc2ccccn2)ccc1Cl,18.4%
18,Cc1ccc(/C=C/C(=O)NCc2ccncc2)cc1,3.28%
